Assay results as given in patent US20250092109A1 (XILIO DEVELOPMENT, published 2025).

Target: PD-1 (UniProt Q15116 25-288, limits assumed)
Experiment: cell-based or functional assay

UniProt Q15116, sequence (Q15116 25-288 limits assumed): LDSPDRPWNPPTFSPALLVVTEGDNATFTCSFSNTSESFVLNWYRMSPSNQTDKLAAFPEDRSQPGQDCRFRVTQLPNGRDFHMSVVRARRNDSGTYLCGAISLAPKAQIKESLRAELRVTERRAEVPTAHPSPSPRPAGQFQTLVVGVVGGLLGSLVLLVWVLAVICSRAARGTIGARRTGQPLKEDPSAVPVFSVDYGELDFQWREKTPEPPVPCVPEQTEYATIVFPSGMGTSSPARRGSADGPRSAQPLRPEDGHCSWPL

B1: C6 (Fc fusion)
chain 1: [not shown - about 150 residues]
chain 2: EVQLVESGGGLVQPGGSLRLSCAASGSIFSINVMGWYRQAPGKQRELVAAISSGGSTNYADSVKGRFTISRDNAKNTVYLQMNSLKPEDTAVYYCMYASSWYEDETDYWGQGTQVTVSS
EC50, PD-1/PD-L1 Blockade Bioassay (fold induction of luminescence, TCR signaling): 1.46

B2: C5 (Fc fusion)
chain 1: [not shown - about 150 residues]
chain 2: EVQLVESGGGLVQPGGSLRLSCAASGSIFSINVMGWYRQAPGKQRELVAAISSGGSTNYADSVKGRFTISRDNAKNTVYLQMNSLKPEDTAVYYCMYASSWYEDETDYWGQGTQVTVSSAAA
EC50, PD-1/PD-L1 Blockade Bioassay (fold induction of luminescence, TCR signaling): 1.29
